# Experimental data as given in the supplement of paper PMC7826260.
# This is one part of the list. Each Rep nickase domain was tested in vitro on the same pool of single strands (3 µM enzyme, 1 h, 37 °C); shown is the middle of each 90-letter strand. Numbers give uncut DNA relative to the enzyme-free pool, as log2; uncut sequences lie near 0, cut ones below; no hit call is given. Shares of all reads are compared; where an enzyme cuts many sequences, the uncut ones exceed 0.
# Legend:
# Assay in all cases: uncleaved DNA left, log2 of reads against the no-enzyme library (log2 ratio); higher = less cleavage (more negative = more Rep cleavage of the k-mer); sequences stand for … in CTCGTCCG…ACCGGAGA
# [1] = tested on: T1, Rep nickase domain of Muscovy duck circovirus
# T1 sequence (residues 1-111, tag not shown): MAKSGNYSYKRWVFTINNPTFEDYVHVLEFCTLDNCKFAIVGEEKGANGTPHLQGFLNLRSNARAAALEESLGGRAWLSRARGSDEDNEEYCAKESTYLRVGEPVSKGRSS
# Method: (§1)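 A pool of 90-nt single-stranded DNAs with seven random bases just before the constant AC of the nick site (name = the seven bases) was cut by 3 µM recombinant His6-SUMO-tagged Rep nickase domain (300 nM DNA, 50 mM HEPES pH 8.0, 50 mM NaCl, 1 mM MnCl2, 1 h, 37 °C, three replicates). Uncut DNA was amplified and sequenced.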
# [2] = tested on: T2, Rep nickase domain of banana bunchy top virus
# T2 sequence (residues 1-94, tag not shown): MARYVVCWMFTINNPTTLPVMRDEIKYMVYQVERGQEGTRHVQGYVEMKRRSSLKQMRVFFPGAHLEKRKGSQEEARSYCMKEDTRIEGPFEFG
# Method: as §1
# [3] = tested on: T3, Rep nickase domain of cabbage leaf curl virus
# T3 sequence (residues 1-116, tag not shown): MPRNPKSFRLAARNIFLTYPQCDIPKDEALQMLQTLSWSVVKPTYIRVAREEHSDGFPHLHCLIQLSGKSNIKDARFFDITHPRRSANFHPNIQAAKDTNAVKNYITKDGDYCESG
# Method: as §1
# [4] = tested on: T4, Rep nickase domain of chickpea chlorotic dwarf virus
# T4 sequence (residues 1-124, tag not shown): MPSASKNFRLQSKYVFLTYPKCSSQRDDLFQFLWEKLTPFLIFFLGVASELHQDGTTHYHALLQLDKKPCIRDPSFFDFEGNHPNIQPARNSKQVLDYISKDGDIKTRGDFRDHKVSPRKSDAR
# Method: as §1
# [5] = tested on: T5, Rep nickase domain of faba bean necrotic yellows virus
# T5 sequence (residues 1-98, tag not shown): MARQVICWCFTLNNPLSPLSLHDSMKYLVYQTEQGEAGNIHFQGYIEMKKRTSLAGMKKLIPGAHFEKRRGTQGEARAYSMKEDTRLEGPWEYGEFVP
# Method: as §1
# [6] = tested on: T6, Rep nickase domain of maize striate mosaic virus
# T6 sequence (residues 1-117, tag not shown): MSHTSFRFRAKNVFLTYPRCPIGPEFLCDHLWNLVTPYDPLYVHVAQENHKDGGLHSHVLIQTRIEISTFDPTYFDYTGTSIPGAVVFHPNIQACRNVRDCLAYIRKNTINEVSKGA
# Method: as §1
# [7] = tested on: T7, Rep nickase domain of porcine circovirus 2
# T7 sequence (residues 2-116, tag not shown): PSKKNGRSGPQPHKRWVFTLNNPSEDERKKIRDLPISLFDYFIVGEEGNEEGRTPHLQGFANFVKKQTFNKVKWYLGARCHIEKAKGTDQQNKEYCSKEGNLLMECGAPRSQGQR
# Method: as §1
# [8] = tested on: T8, Rep nickase domain of tomato golden mosaic virus
# T8 sequence (residues 1-124, tag not shown): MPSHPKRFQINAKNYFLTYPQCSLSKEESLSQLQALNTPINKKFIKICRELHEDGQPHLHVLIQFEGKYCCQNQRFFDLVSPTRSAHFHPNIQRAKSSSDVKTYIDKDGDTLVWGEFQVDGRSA
# Method: as §1
# [9] = tested on: T9, Rep nickase domain of tomato yellow leaf curl virus
# T9 sequence (residues 1-136, tag not shown): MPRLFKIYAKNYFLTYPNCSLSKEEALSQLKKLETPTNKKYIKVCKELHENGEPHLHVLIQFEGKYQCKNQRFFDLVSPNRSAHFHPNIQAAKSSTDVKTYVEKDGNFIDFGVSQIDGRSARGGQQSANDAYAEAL
# Method: as §1
# [10] = tested on: T10, Rep nickase domain of wheat dwarf virus
# T10 sequence (residues 1-137, tag not shown): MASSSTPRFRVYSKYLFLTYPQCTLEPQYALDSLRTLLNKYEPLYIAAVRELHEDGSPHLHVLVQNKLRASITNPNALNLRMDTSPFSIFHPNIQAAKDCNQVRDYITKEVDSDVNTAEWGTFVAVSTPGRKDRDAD
# Method: as §1
Sequence,uncleaved DNA left (log2) [1],uncleaved DNA left (log2) [2],uncleaved DNA left (log2) [3],uncleaved DNA left (log2) [4],uncleaved DNA left (log2) [5],uncleaved DNA left (log2) [6],uncleaved DNA left (log2) [7],uncleaved DNA left (log2) [8],uncleaved DNA left (log2) [9],uncleaved DNA left (log2) [10]
ATGTTTC,-0.0911,-0.0891,-0.0304,-0.199,-0.0566,-0.533,-0.126,-0.0977,-0.154,-0.158
TTAGTGT,0.142,0.0767,0.00913,-0.367,0.0589,-0.468,0.127,0.0402,0.138,-0.00291
CTTAAGC,-0.00925,0.0553,0.0247,-0.16,0.0056,-0.996,0.232,-0.0113,0.0969,0.179
TTACTAC,-2.68,-0.0439,-0.106,-2.64,0.0703,-0.173,-2.58,0.0422,0.00841,-0.0851
CTGGGAC,-0.11,0.128,0.802,2.01,0.124,2.25,0.348,0.0366,0.125,0.14
TAGCGAA,0.0605,0.0538,-0.336,-0.446,0.0473,-0.849,-0.159,0.0221,0.033,0.00597
TATCACC,0.0448,0.0314,0.166,-0.57,-0.092,-0.167,-0.246,-0.0148,0.0126,0.00673
GCGTAAA,-0.161,-0.00466,-0.0301,0.325,-0.0654,0.106,-0.183,-0.119,-0.175,0.0371
GTTTGGC,0.0363,0.0136,0.151,0.682,-0.112,0.471,0.0595,-0.0134,0.0223,0.0164
ACCGATT,-0.215,-0.0651,-0.326,-1.75,0.0387,-0.827,-0.0508,-0.161,-0.139,-0.131
TCGGGTG,-0.00514,-0.0337,-0.0803,0.0281,-0.0644,0.0294,0.219,0.0451,-0.00547,-0.101
TTCCGCG,-0.00466,-0.00282,-0.661,0.467,-0.047,-0.608,0.129,-0.124,-0.115,-0.0951
AACCTTA,0.00671,-0.0889,-0.202,-2.06,-0.0737,-0.481,-0.412,-0.0469,-0.0513,-0.151
GGATTTT,-0.547,0.00909,0.488,0.99,-0.0429,1.89,-1.54,-0.0191,0.0142,0.0695
GTCCCTC,-0.0173,0.0463,0.309,0.805,0.0449,1.56,0.0341,0.0156,0.0328,0.127
GGCATCT,0.2,0.168,0.704,1.3,0.0872,1.98,0.222,0.0851,0.216,0.243
CGACGGG,0.117,0.0202,0.163,0.397,0.0521,0.85,0.0425,0.0299,0.0373,-0.0545
CAAACTT,-0.179,-0.767,-3.31,-3.37,0.0453,-1.8,-2.99,-2.54,-0.0158,-2.89
AAGATGG,0.153,0.112,-0.0836,0.0587,0.0236,-0.486,0.151,0.0654,-0.0827,-0.00546
AACAACG,0.0258,0.0298,-0.738,-0.44,0.065,-0.867,0.197,0.0206,0.044,-0.0163
TCATATC,0.0294,0.131,0.0431,-0.309,0.0705,-0.629,0.0613,-0.19,0.14,0.143
TCTCACG,0.00856,-0.137,-0.715,-0.767,0.11,-1.09,0.147,-0.0795,-0.0306,-0.179
AATGAGG,0.135,0.0483,0.318,0.798,-0.014,0.261,0.155,0.195,0.00218,0.187
GCGCACA,0.0665,0.0822,0.146,0.441,0.0718,0.808,0.189,-0.0802,0.136,0.13
TGTCAGA,0.00501,0.0462,0.133,0.173,0.096,-0.32,0.112,0.0603,0.185,0.0587
GATATTA,0.000441,-0.000713,0.254,0.213,0.0653,1.08,-0.0103,0.129,0.0251,0.02
CGTTGCA,0.0189,-0.00527,-0.776,-0.516,0.0635,-1.02,0.0786,-0.0557,0.118,-0.146
TTAAGTC,0.0255,-0.0701,-3.32,-3.1,-0.025,-2.04,0.0295,-1.15,-0.0225,-2.23
ATGACTC,-0.0406,-0.0222,0.0545,0.526,-0.0538,0.522,0.0893,-0.199,-0.0838,0.055
GTTGCGT,-0.0394,-0.0685,-0.836,0.0468,-0.0799,-0.584,-0.00952,-0.107,0.00312,-0.181
